# Experimental data from the supplement of paper PMC3334620.
# Over roughly 33,000 sequences, “E-score (-0.5 to 0.5)” has its median near -0.043; the highest 2% begin near 0.37. This is one part of the list.
# Target: T1, Upc2 (UniProt Q12151)
# T1 sequence: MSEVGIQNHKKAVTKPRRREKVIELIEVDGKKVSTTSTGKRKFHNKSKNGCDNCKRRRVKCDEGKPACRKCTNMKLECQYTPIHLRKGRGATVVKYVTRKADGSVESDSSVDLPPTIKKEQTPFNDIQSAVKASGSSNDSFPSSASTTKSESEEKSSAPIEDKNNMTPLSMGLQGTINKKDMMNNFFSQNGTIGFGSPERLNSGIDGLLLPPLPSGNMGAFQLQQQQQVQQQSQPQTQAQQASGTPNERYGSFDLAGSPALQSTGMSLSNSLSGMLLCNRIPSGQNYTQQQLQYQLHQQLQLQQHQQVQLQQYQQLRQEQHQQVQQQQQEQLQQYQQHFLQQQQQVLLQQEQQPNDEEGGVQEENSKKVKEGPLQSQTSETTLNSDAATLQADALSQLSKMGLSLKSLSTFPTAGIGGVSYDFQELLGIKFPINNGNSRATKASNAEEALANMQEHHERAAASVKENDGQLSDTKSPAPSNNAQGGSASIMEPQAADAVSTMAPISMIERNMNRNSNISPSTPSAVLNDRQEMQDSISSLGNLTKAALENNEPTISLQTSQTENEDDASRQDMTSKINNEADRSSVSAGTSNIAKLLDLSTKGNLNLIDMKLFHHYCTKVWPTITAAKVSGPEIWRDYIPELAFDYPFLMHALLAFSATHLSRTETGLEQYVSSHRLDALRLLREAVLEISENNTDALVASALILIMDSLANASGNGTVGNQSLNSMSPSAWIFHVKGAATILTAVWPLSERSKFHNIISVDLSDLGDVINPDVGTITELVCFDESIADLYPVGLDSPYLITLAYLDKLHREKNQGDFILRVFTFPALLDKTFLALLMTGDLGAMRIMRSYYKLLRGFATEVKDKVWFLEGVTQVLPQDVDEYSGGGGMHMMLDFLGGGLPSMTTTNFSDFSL
# Assay: PBM E-score (8-mer binding enrichment) (E-score (-0.5 to 0.5)); higher = stronger / more preferred TF binding; most listed sequences are background and not binding sites
# Conditions: protein concentration: 200 nM; construct: GST-full length
# Procedure, shortened: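 Full-length yeast transcription factors or their DNA-binding domains, GST-tagged and expressed with PURExpress, were applied at about 100-200 nM to universal all-10-mer Agilent arrays. These arrays had been made double-stranded by primer extension on fresh or once-stripped slides. Detection used fluorescent anti-GST, normalisation used masliner, and E-scores for ungapped eight-base words pooled with reverse complements came from the Universal PBM Analysis Suite.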
row,Sequence,PBM E-score
1,AATAGATT,-0.0588
2,CGATTAAG,0.257
3,CACCCTAG,-0.203
4,ATAATGTG,0.0114
5,AGTTGCGG,-0.0153
6,ACGCCCTA,-0.111
7,AGCCGTGA,-0.0983
8,ACAGTTAA,0.116
9,ATCCAGAC,-0.251
10,GCACCAAA,-0.0527
11,CTTAGTAC,0.0714
12,AGAGGTGA,-0.0822
13,AGTTAATC,-0.0362
14,AGTCAACG,0.0316
15,ATGGAACG,0.34
16,GAAAACAC,-0.031
17,CCAAGTTC,-0.108
18,GTGTTCCA,-0.13
19,CGGCCCTA,-0.218
20,GCCGCTCA,-0.283
21,GTAAACTA,0.172
22,GCACCAGC,-0.118

row,Sequence,PBM E-score
1,CAACGAAA,0.221
2,ACGGGAGG,0.0652
3,GTTAATCA,0.0984
4,ATTAGGAC,0.066
5,TCTTACAA,0.0124
6,ACCACCCT,-0.0594
7,CTATGGGC,-0.184
8,ATCGGCAC,-0.09
9,CCCCGCGC,-0.0172
10,GCCCGGGA,-0.146
11,AACACTTC,0.00636
12,CGTACCGC,0.416
13,ACACGGGA,-0.129
14,AACCGACA,0.232
15,CAATTTGG,-0.104
16,GCTTGTCA,0.0148
17,CTCCCACA,-0.221
18,CACGTATG,0.236
19,CGGAATCA,-0.104
20,GGCCTTCA,-0.161
21,AAATGGAG,-0.101
22,CATAACTC,-0.0677

row,Sequence,PBM E-score
1,CAGGCAAC,-0.258
2,AGCCTACC,-0.183
3,CGTGTCGA,-0.0271
4,GCAATAAA,0.117
5,AATATACG,0.465
6,CGGCTAGA,0.0143
7,ACCGGACA,-0.141
8,CAAAGCCC,-0.118
9,AGGAGTTG,0.0212
10,ACGTGGAC,-0.0272
11,AAGCATAT,-0.0288
12,AACCTTCA,-0.114
13,ATAAATTC,0.0372
14,AACAAGGT,-0.18
15,AAGTCTAC,-0.144
16,CCGCACTC,0.195
17,CGCATATC,0.187
18,CAGGCTAC,-0.13
19,CTGGTCAC,-0.152
20,GCCCCAGA,-0.09
21,CCACACCC,-0.0354
22,CATGATCG,0.0308

row,Sequence,PBM E-score
1,TACTCCCA,-0.129
2,CAACTCCC,-0.102
3,CGCTTCGC,0.209
4,AAGTTCAC,0.0547
5,AGTTCACG,0.234
6,CCTGGCGC,-0.125
7,CCGACAAA,0.00616
8,CCGAGAAG,0.0731
9,CGCAAGTA,0.0533
10,AACCGAAC,0.227
11,CCGCTCGA,-0.067
12,CCTGTCTA,-0.188
13,CGGTGAGC,0.0652
14,ATAGTGTC,0.0368
15,ATTCACGG,-0.0319
16,AGCTAGTG,-0.0672
17,GTTAAGAA,0.106
18,CCTCGTGA,0.168
19,AATGGACA,-0.102
20,GCGGAGAA,-0.0486
